Laboratory results: PubChem BioAssay AID252 (DTP/NCI, 2004)
Inconclusive results and toxic doses are left out. The source holds more than one record for some entries. The other results are left out here. An entry can have further records. The records of an entry do not match, cause unknown; they may come from other doses, times, organisms or constructs than stated. Marks such as (2×) say how often a value occurs here.

Test system: BDF1 mice, intracerebral L1210 leukemia, survival T/C
Assay: NCI In Vivo Anticancer Drug Screen. Data for tumor model L1210 Leukemia (intracerebral) in B6D2F1 (BDF1) mice
Details: endpoint: mean survival time, higher = longer survival
Procedure: The antitumor activity of compounds was measured in mice bearing transplantable tumors. Survival or tumor size were measured and the results are expressed as the measurement made in the treated group (T) divided by the measurement made in the vehicle treated control group (C). The tumor model used in this assay is L1210 Leukemia (intracerebral) in B6D2F1 (BDF1) mice

`O=P1(N(CCCl)CCCl)NCCCO1` (stereo unspecified) was tested, and the T/C (dose: 100.0 mg/kg/injection, schedule: Q01DX001 (ip), vehicle: Klucel (hydroxypropylcellulose) (HPC)) was 115 % of control and 153 % of control.

`O=C1C(Cl)=C(N2CC2)C(=O)C(Cl)=C1N1CC1` was tested, and the T/C (dose: 2.5 mg/kg/injection, schedule: Q01DX009 (ip), vehicle: saline) was 102 % of control, 104 % of control, 413 % of control, the T/C (dose: 5.0 mg/kg/injection, schedule: Q01DX009 (ip), vehicle: saline) was 92 % of control, 104 % of control, 413 % of control and the T/C (dose: 10.0 mg/kg/injection, schedule: Q01DX009 (ip), vehicle: saline) was 96 % of control, 103 % of control, 289 % of control.

For `CC(CN1CC(=O)NC(=O)C1)N1CC(=O)NC(=O)C1` (stereo unspecified), the T/C (dose: 12.5 mg/kg/injection, schedule: Q03HX024 (ip), vehicle: steriod suspending solution) was 116 % of control, 152 % of control, 158 % of control, the T/C (dose: 300.0 mg/kg/injection, schedule: Q04DX003 (ip), vehicle: other) was 112 % of control, 119 % of control, 157 % of control and the T/C (dose: 300.0 mg/kg/injection, schedule: Q04DX003 (ip), vehicle: steriod suspending solution) was 117 % of control, 124 % of control, 157 % of control.

With `O=C1C(NC(=O)C2CCCCC2)=C(N2CC2)C(=O)C(NC(=O)C2CCCCC2)=C1N1CC1` the T/C (dose: 100.0 mg/kg/injection, schedule: Q01DX009 (ip), vehicle: Klucel (hydroxypropylcellulose) (HPC)) was 100 % of control, 101 % of control, 160 % of control.

`COCCOC1=C(N2CC2)C(=O)C(OCCOC)=C(N2CC2)C1=O` was tested, and the T/C (dose: 0.5 mg/kg/injection, schedule: Q01DX009 (ip), vehicle: saline) was 96 % of control (2×) and 301 % of control and the T/C (dose: 4.0 mg/kg/injection, schedule: Q01DX009 (ip), vehicle: saline) was 105 % of control, 121 % of control, 163 % of control.

For `CCC(=O)NC1=C(N2CC2C)C(=O)C(NC(=O)CC)=C(N2CC2C)C1=O` (stereo unspecified), the T/C (dose: 6.25 mg/kg/injection, schedule: Q01DX009 (ip), vehicle: Klucel (hydroxypropylcellulose) (HPC)) was 105 % of control and 411 % of control.
